Some of the results follow. At the low end of the ranking the order means little.

The target in the experiment is T1, GST-Rok (full length) (UniProt O34857).
T1 sequence: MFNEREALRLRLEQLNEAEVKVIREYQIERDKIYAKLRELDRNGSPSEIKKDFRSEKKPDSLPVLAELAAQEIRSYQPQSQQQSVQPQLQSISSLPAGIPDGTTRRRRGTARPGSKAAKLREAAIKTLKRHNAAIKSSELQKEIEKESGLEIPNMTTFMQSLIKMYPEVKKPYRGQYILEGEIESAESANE
As to the kind of experiment: protein binding microarray.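 Also: rank score from −0.5 (least bound) to 0.5 (best bound).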 As to conditions: Rok is a gene silencer of Bacillus subtilis; high values mean tight binding; most listed sequences are background and not binding sites; double strand, one strand shown.
Consider CGTTTCAC, for which the binding signal is -0.313 E-score.

The sequence AGTCGTAT yielded a binding signal of 0.0627 E-score.

As to AACTCTTC, the binding signal was -0.0814 E-score.

Regarding AGCGTGTC, the binding signal was -0.0558 E-score.

Take AGCAGTGC: the binding signal is -0.162 E-score.

For the sequence CACATCTA, the binding signal stood at 0.268 E-score.

CCAGCTGC: the binding signal is -0.043 E-score.

ATACACGC gave a binding signal of 0.202 E-score.

On to AAGGATAC, for which the binding signal came to 0.0607 E-score.

AGTACTGC gave a binding signal of 0.114 E-score.

The sequence AAACTGCA displayed a binding signal of 0.0886 E-score.

Take CACGGGAC: the binding signal is -0.343 E-score.

Turning to GTAGAATA, the binding signal was determined as 0.292 E-score.

For the sequence CAGAATAG, the binding signal is 0.106 E-score.

In the case of AGGGAGAT, the binding signal is -0.221 E-score.

As for CAAGTTAA, the binding signal was 0.0371 E-score.

AGTATTAG gave a binding signal of 0.333 E-score.

For GAACGGCA, the binding signal is -0.144 E-score.

In turn, ACCTCTCC registered a binding signal of -0.175 E-score.

Regarding ACAGTCCC, the binding signal is -0.217 E-score.

AGTAAGAG had a binding signal of -0.132 E-score.

Consider GACCATCC, for which the binding signal was -0.0513 E-score.

For the sequence CACAGTCG, the binding signal is -0.000742 E-score.

As to CCCCAATC, the binding signal was -0.325 E-score.

ATATTACG: the binding signal stood at 0.281 E-score.

Sequence GTCAATCA displayed a binding signal of -0.0178 E-score.

CCAAGTTC: the binding signal was -0.0498 E-score.

As to ACTAATTG, the binding signal amounted to 0.184 E-score.

In turn, ACATACTG displayed a binding signal of 0.141 E-score.

The sequence AAAGCGTG yielded a binding signal of -0.163 E-score.

For the sequence ACGCGCTG, the binding signal is -0.0959 E-score.

AAGCGGAG had a binding signal of -0.128 E-score.

The sequence CCATCAGG displayed a binding signal of -0.101 E-score.

GTGCGTAA: the binding signal is 0.0292 E-score.

Sequence GAGGATAC showed a binding signal of -0.124 E-score.

Sequence GATTAACC yielded a binding signal of -0.0693 E-score.

Sequence ACAGCTAT yielded a binding signal of 0.15 E-score.

With CCGGGCCA, the binding signal is -0.318 E-score.

The sequence GGGCGACA displayed a binding signal of -0.251 E-score.

CCCCGTTA: the binding signal was -0.249 E-score.

Sequence ATTATGTG gave a binding signal of 0.185 E-score.

Turning to CCATGGGC, the binding signal is -0.327 E-score.

Sequence AAGAGGAG yielded a binding signal of -0.246 E-score.

GGAGACTA: the binding signal was -0.0693 E-score.

Turning to GCCCATTA, the binding signal was -0.106 E-score.

In turn, CGGATCCC came in with a binding signal of -0.231 E-score.

CCGCAGAA returned a binding signal of -0.0699 E-score.

CAGGCTGC returned a binding signal of -0.0469 E-score.

In turn, ATTTGGGA had a binding signal of -0.131 E-score.

As for ATAGATTC, the binding signal amounted to 0.374 E-score.

Sequence AAGGCACC had a binding signal of -0.198 E-score.

Turning to TGTGAGAA, the binding signal worked out at 0.216 E-score.

GTTGTACA had a binding signal of 0.223 E-score.

As to CCCTGTCC, the binding signal was -0.0807 E-score.

CCTCGTTA: the binding signal is -0.0836 E-score.

For CCGATTAG, the binding signal was -0.0942 E-score.

In the case of AGCAAAGG, the binding signal was -0.203 E-score.

Regarding GGTGGGCA, the binding signal was -0.165 E-score.

In turn, ATGCTATG returned a binding signal of 0.0577 E-score.

CGTATCTC registered a binding signal of 0.184 E-score.

As for GAGCTGGC, the binding signal was -0.148 E-score.

As to CGCGTGGC, the binding signal is -0.208 E-score.

Take CAACCACA: the binding signal came to 0.0291 E-score.

CCATCACC showed a binding signal of -0.203 E-score.

ACCAGCTC gave a binding signal of -0.165 E-score.

The sequence GAACTCTC showed a binding signal of 0.0241 E-score.

AAGCTATG showed a binding signal of 0.0177 E-score.

As for ATCACTCA, the binding signal worked out at 0.155 E-score.

AGAGATGA: the binding signal is -0.0694 E-score.

The sequence ACACCGAT gave a binding signal of 0.00689 E-score.

As to AGTTAGGA, the binding signal was 0.158 E-score.

Sequence CTTCTTCA had a binding signal of -0.176 E-score.

GACGCTGC showed a binding signal of -0.188 E-score.

In turn, CGATGAGA came in with a binding signal of 0.0331 E-score.

AAAGCCTA registered a binding signal of -0.0192 E-score.

Take CGTCCAGC: the binding signal was -0.013 E-score.

For ACCCGAAA, the binding signal is -0.25 E-score.

On to AGGACTCC, for which the binding signal was -0.253 E-score.

Sequence CCGTCGGC yielded a binding signal of -0.252 E-score.

On to AGATGCCC, for which the binding signal is -0.263 E-score.

The sequence GCCCCACA registered a binding signal of -0.364 E-score.

Turning to AAAGCTTC, the binding signal was -0.133 E-score.

Turning to CTGATCTC, the binding signal was -0.039 E-score.

Consider AGGTAGCA, for which the binding signal came out at 0.161 E-score.

As for ATGGGTCG, the binding signal is -0.172 E-score.

In turn, ACCATATA came in with a binding signal of 0.243 E-score.

Regarding ATCCAGGA, the binding signal stood at 0.142 E-score.

Consider TCGCAAGA, for which the binding signal was -0.0621 E-score.

For GGCCCGTA, the binding signal is -0.126 E-score.

As for ATCATGAA, the binding signal worked out at 0.136 E-score.

Consider CCTGGCCG, for which the binding signal is -0.289 E-score.

Take CCCGACCA: the binding signal is -0.18 E-score.

Sequence ACCAGAAG showed a binding signal of 0.0484 E-score.

Regarding CCCTGTAG, the binding signal is -0.162 E-score.

For CACATTGA, the binding signal was 0.16 E-score.

CAGTCATC registered a binding signal of -0.0997 E-score.

ATGACCTG: the binding signal was -0.114 E-score.

ATCGGAGA gave a binding signal of 0.0123 E-score.

As for TAGCTGCA, the binding signal worked out at 0.0594 E-score.

The sequence CATTCGCC came in with a binding signal of -0.0598 E-score.

For CGAGGAGA, the binding signal was -0.127 E-score.

For the sequence TAAACACA, the binding signal was determined as 0.21 E-score.

In the case of CGGCGAAG, the binding signal stood at 0.0313 E-score.

AGCGAGGA gave a binding signal of -0.294 E-score.

Regarding AGATGCGG, the binding signal is -0.156 E-score.

The sequence TATTATCA showed a binding signal of 0.227 E-score.

The sequence CCCACGAA registered a binding signal of -0.202 E-score.

GTAAAACA: the binding signal came to 0.201 E-score.

In the case of CATACGTA, the binding signal is 0.158 E-score.

In the case of AGCTACTG, the binding signal was found to be 0.294 E-score.

As for GTTTCGGA, the binding signal was found to be 0.0521 E-score.

CATCACTA registered a binding signal of 0.0263 E-score.

AACATGCG returned a binding signal of -0.133 E-score.

On to CCAAGACA, for which the binding signal is -0.134 E-score.

CATCCGTA: the binding signal is 0.112 E-score.

Sequence CGCCCTGA showed a binding signal of -0.353 E-score.

Sequence ATCGTGCG registered a binding signal of -0.0403 E-score.

On to ATAGTCTG, for which the binding signal worked out at 0.347 E-score.

On to AGCGCCCT, for which the binding signal was -0.354 E-score.

As for CTCGGCAA, the binding signal was -0.0472 E-score.

Consider TAGAGACA, for which the binding signal was 0.233 E-score.

TAAATGAA: the binding signal is 0.0933 E-score.

Sequence CGCGTCAG showed a binding signal of -0.243 E-score.

Sequence AGTCAAGA yielded a binding signal of -0.054 E-score.

GCCGGGGA displayed a binding signal of -0.294 E-score.

Sequence AAGTTGGC had a binding signal of 0.11 E-score.

In turn, CCCTGACA returned a binding signal of -0.211 E-score.

As to CAAACGCC, the binding signal is -0.178 E-score.

CTGTACCA registered a binding signal of -0.0416 E-score.

The sequence GGCCAGCA had a binding signal of -0.363 E-score.

Consider AATTACCA, for which the binding signal stood at 0.326 E-score.

Regarding CATATCAC, the binding signal was 0.0979 E-score.

GATGTCCA gave a binding signal of -0.0564 E-score.

CCGACTTC had a binding signal of -0.187 E-score.

Consider TCAGAGAA, for which the binding signal is -0.154 E-score.

As to CCGGTTCG, the binding signal is -0.219 E-score.

In turn, AAAAAATT gave a binding signal of -0.0604 E-score.

With AGAAGGCT, the binding signal was -0.245 E-score.

Sequence CAAGTCTG displayed a binding signal of -0.111 E-score.

GCGTCTAC showed a binding signal of 0.0278 E-score.

Regarding CCATCAAA, the binding signal is -0.0223 E-score.

For the sequence CAGGGATG, the binding signal is -0.217 E-score.

AGAGATTA: the binding signal worked out at 0.055 E-score.

AGATCCCC yielded a binding signal of -0.261 E-score.

With CGTTCCCC, the binding signal was -0.344 E-score.

Consider ATCATCCA, for which the binding signal was -0.0709 E-score.

In the case of GCATGAGC, the binding signal is -0.161 E-score.

The sequence ACGGCAGG registered a binding signal of -0.232 E-score.

Regarding CACAATCA, the binding signal is -0.158 E-score.

For CTGCTCGA, the binding signal is -0.167 E-score.

ATAATAAA yielded a binding signal of 0.297 E-score.

Sequence ATAATTGA registered a binding signal of 0.257 E-score.

The sequence GTGCTATA displayed a binding signal of 0.147 E-score.

ACTATCCA had a binding signal of 0.202 E-score.

Turning to ACACGGGA, the binding signal is -0.241 E-score.

Sequence CCTTTAAG showed a binding signal of -0.233 E-score.

ATAGTGAA: the binding signal came to 0.142 E-score.

As to AGAACGGG, the binding signal was -0.151 E-score.

GTCAGACA returned a binding signal of -0.0831 E-score.

For GGGAGCCA, the binding signal was -0.337 E-score.

In the case of AACGGACG, the binding signal was -0.262 E-score.

ATAGGAAC registered a binding signal of 0.113 E-score.

With GCTAAAGC, the binding signal was -0.219 E-score.

The sequence CTAAAACA displayed a binding signal of 0.238 E-score.

As to CCGATTTA, the binding signal is 0.178 E-score.

As to CGTAATGC, the binding signal was 0.0534 E-score.

As for ACGCCGCA, the binding signal is -0.209 E-score.

CCCACATA returned a binding signal of 0.000957 E-score.

Sequence CAAAATGC came in with a binding signal of 0.102 E-score.

ATCACGAT: the binding signal is 0.189 E-score.

On to AGGCCACT, for which the binding signal is -0.0512 E-score.

Consider GGGTTCAA, for which the binding signal is -0.219 E-score.

Source of the values: publication PMC6212790.
